Assay results taken from the supplement of paper PMC8728848.
Some of the results follow.

Experiments:
Test in all cases: glycan array binding signal (z-score within array); higher = stronger binding
Conditions in all cases: glycan notation: IUPAC condensed, linker removed
Neu5Ac(a2-3)GalNAc = biological target: Neu5Ac(a2-3)GalNAc
Summary of the method: (§1)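 The Consortium for Functional Glycomics database supplied 3228 glycan arrays, of which those lacking an available protein sequence were dropped. The binding signal, a within-array Z-score, was averaged across arrays of the same protein sequence and across linkers. Negative scores can be read as non-binding.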

[1] = biological target: Neu5Ac(a2-3)GalNAc(b1-4)GlcNAc
Summary of the method: as §1

[2] = biological target: Neu5Ac(a2-3)[GalNAc(b1-4)]Gal(b1-4)Glc
Summary of the method: as §1

[3] = biological target: Neu5Ac(a2-3)[GalNAc(b1-4)]Gal(b1-4)GlcNAc
Summary of the method: as §1

[4] = biological target: Neu5Ac(a2-3)[GalNAc(b1-4)]Gal(b1-4)GlcNAc(b1-3)GalNAc
Summary of the method: as §1

[5] = biological target: Neu5Ac(a2-3)[Neu5Ac(a2-6)]GalNAc
Summary of the method: as §1

Neu5Ac(a2-6)Gal = biological target: Neu5Ac(a2-6)Gal
Summary of the method: as §1

[6] = biological target: Neu5Ac(a2-6)Gal(b1-3)GlcNAc(b1-3)[Gal(b1-4)GlcNAc(b1-6)]Gal(b1-4)Glc
Summary of the method: as §1

Neu5Ac(a2-6)Gal(b1-4)Glc = biological target: Neu5Ac(a2-6)Gal(b1-4)Glc
Summary of the method: as §1

[7] = biological target: Neu5Ac(a2-6)Gal(b1-4)GlcNAc
Summary of the method: as §1

[8] = biological target: Neu5Ac(a2-6)Gal(b1-4)GlcNAc(b1-2)Man
Summary of the method: as §1

[9] = biological target: Neu5Ac(a2-6)Gal(b1-4)GlcNAc(b1-2)Man(a1-3)Man(b1-4)GlcNAc(b1-4)GlcNAc
Summary of the method: as §1

[10] = biological target: Neu5Ac(a2-6)Gal(b1-4)GlcNAc(b1-2)Man(a1-3)[Gal(b1-4)GlcNAc(b1-2)Man(a1-6)]Man(b1-4)GlcNAc(b1-4)GlcNAc
Summary of the method: as §1

[11] = biological target: Neu5Ac(a2-6)Gal(b1-4)GlcNAc(b1-2)Man(a1-3)[GlcNAc(b1-2)Man(a1-6)]Man(b1-4)GlcNAc(b1-4)GlcNAc
Summary of the method: as §1

[12] = biological target: Neu5Ac(a2-6)Gal(b1-4)GlcNAc(b1-2)Man(a1-3)[GlcNAc(b1-4)][Neu5Ac(a2-6)Gal(b1-4)GlcNAc(b1-2)Man(a1-6)]Man(b1-4)GlcNAc(b1-4)GlcNAc
Summary of the method: as §1

[13] = biological target: Neu5Ac(a2-6)Gal(b1-4)GlcNAc(b1-2)Man(a1-3)[Man(a1-6)]Man(b1-4)GlcNAc(b1-4)GlcNAc
Summary of the method: as §1

[14] = biological target: Neu5Ac(a2-6)Gal(b1-4)GlcNAc(b1-2)Man(a1-3)[Neu5Ac(a2-3)Gal(b1-4)GlcNAc(b1-2)Man(a1-6)]Man(b1-4)GlcNAc(b1-4)GlcNAc
Summary of the method: as §1

[15] = biological target: Neu5Ac(a2-6)Gal(b1-4)GlcNAc(b1-2)Man(a1-3)[Neu5Ac(a2-6)Gal(b1-4)GlcNAc(b1-2)Man(a1-6)]Man(b1-4)GlcNAc(b1-4)GlcNAc
Summary of the method: as §1

[16] = biological target: Neu5Ac(a2-6)Gal(b1-4)GlcNAc(b1-2)Man(a1-3)[Neu5Ac(a2-6)Gal(b1-4)GlcNAc(b1-2)Man(a1-6)]Man(b1-4)GlcNAc(b1-4)[Fuc(a1-6)]GlcNAc
Summary of the method: as §1

[17] = biological target: Neu5Ac(a2-6)Gal(b1-4)GlcNAc(b1-2)Man(a1-6)Man(b1-4)GlcNAc(b1-4)GlcNAc
Summary of the method: as §1

[18] = biological target: Neu5Ac(a2-6)Gal(b1-4)GlcNAc(b1-2)Man(a1-6)[Gal(b1-4)GlcNAc(b1-2)Man(a1-3)]Man(b1-4)GlcNAc(b1-4)GlcNAc
Summary of the method: as §1

[19] = biological target: Neu5Ac(a2-6)Gal(b1-4)GlcNAc(b1-2)Man(a1-6)[GlcNAc(b1-2)Man(a1-3)]Man(b1-4)GlcNAc(b1-4)GlcNAc
Summary of the method: as §1

[20] = biological target: Neu5Ac(a2-6)Gal(b1-4)GlcNAc(b1-2)Man(a1-6)[Man(a1-3)]Man(b1-4)GlcNAc(b1-4)GlcNAc
Summary of the method: as §1

[21] = biological target: Neu5Ac(a2-6)Gal(b1-4)GlcNAc(b1-2)[Neu5Ac(a2-6)Gal(b1-4)GlcNAc(b1-4)]Man(a1-3)[GlcNAc(b1-4)][Neu5Ac(a2-6)Gal(b1-4)GlcNAc(b1-2)[Neu5Ac(a2-6)Gal(b1-4)GlcNAc(b1-6)]Man(a1-6)]Man(b1-4)GlcNAc(b1-4)GlcNAc
Summary of the method: as §1

[22] = biological target: Neu5Ac(a2-6)Gal(b1-4)GlcNAc(b1-2)[Neu5Ac(a2-6)Gal(b1-4)GlcNAc(b1-4)]Man(a1-3)[GlcNAc(b1-4)][Neu5Ac(a2-6)Gal(b1-4)GlcNAc(b1-4)Man(a1-6)]Man(b1-4)GlcNAc(b1-4)GlcNAc
Summary of the method: as §1

[23] = biological target: Neu5Ac(a2-6)Gal(b1-4)GlcNAc(b1-2)[Neu5Ac(a2-6)Gal(b1-4)GlcNAc(b1-6)]Man(a1-6)[Neu5Ac(a2-6)Gal(b1-4)GlcNAc(b1-2)Man(a1-3)][GlcNAc(b1-4)]Man(b1-4)GlcNAc(b1-4)GlcNAc
Summary of the method: as §1

[24] = biological target: Neu5Ac(a2-6)Gal(b1-4)GlcNAc(b1-3)Gal(b1-3)GlcNAc
Summary of the method: as §1

[25] = biological target: Neu5Ac(a2-6)Gal(b1-4)GlcNAc(b1-3)Gal(b1-4)GlcNAc
Summary of the method: as §1

[26] = biological target: Neu5Ac(a2-6)Gal(b1-4)GlcNAc(b1-3)Gal(b1-4)GlcNAc(b1-2)Man(a1-3)[Neu5Ac(a2-6)Gal(b1-4)GlcNAc(b1-3)Gal(b1-4)GlcNAc(b1-2)Man(a1-6)]GalNAc
Summary of the method: as §1

[27] = biological target: Neu5Ac(a2-6)Gal(b1-4)GlcNAc(b1-3)Gal(b1-4)GlcNAc(b1-3)Gal(b1-4)GlcNAc
Summary of the method: as §1

[28] = biological target: Neu5Ac(a2-6)Gal(b1-4)GlcNAc(b1-3)Gal(b1-4)GlcNAc(b1-3)Gal(b1-4)GlcNAc(b1-2)Man(a1-3)[Neu5Ac(a2-6)Gal(b1-4)GlcNAc(b1-3)Gal(b1-4)GlcNAc(b1-3)Gal(b1-4)GlcNAc(b1-2)Man(a1-6)]GalNAc
Summary of the method: as §1

[29] = biological target: Neu5Ac(a2-6)Gal(b1-4)GlcNAc(b1-3)Gal(b1-4)GlcNAc(b1-3)GalNAc
Summary of the method: as §1

[30] = biological target: Neu5Ac(a2-6)Gal(b1-4)GlcNAc(b1-3)Gal(b1-4)GlcNAc(b1-3)[Neu5Ac(a2-6)Gal(b1-4)GlcNAc(b1-3)Gal(b1-4)GlcNAc(b1-6)]GalNAc
Summary of the method: as §1

[31] = biological target: Neu5Ac(a2-6)Gal(b1-4)GlcNAc(b1-3)Gal(b1-4)GlcNAc(b1-6)[Gal(b1-3)]GalNAc
Summary of the method: as §1

[32] = biological target: Neu5Ac(a2-6)Gal(b1-4)GlcNAc(b1-3)Gal(b1-4)[Fuc(a1-3)]GlcNAc(b1-3)Gal(b1-4)[Fuc(a1-3)]GlcNAc
Summary of the method: as §1

[33] = biological target: Neu5Ac(a2-6)Gal(b1-4)GlcNAc(b1-3)GalNAc
Summary of the method: as §1

[34] = biological target: Neu5Ac(a2-6)Gal(b1-4)GlcNAc(b1-3)[Neu5Ac(a2-6)Gal(b1-4)GlcNAc(b1-6)]GalNAc
Summary of the method: as §1

[35] = biological target: Neu5Ac(a2-6)Gal(b1-4)GlcNAc(b1-6)GalNAc
Summary of the method: as §1

[36] = biological target: Neu5Ac(a2-6)Gal(b1-4)GlcNAc(b1-6)[Gal(b1-3)GlcNAc(b1-3)]Gal(b1-4)Glc
Summary of the method: as §1

[37] = biological target: Neu5Ac(a2-6)Gal(b1-4)GlcNAc(b1-6)[Gal(b1-3)]GalNAc
Summary of the method: as §1

[38] = biological target: Neu5Ac(a2-6)Gal(b1-4)GlcNAc6S
Summary of the method: as §1

Neu5Ac(a2-6)GalNAc = biological target: Neu5Ac(a2-6)GalNAc
Summary of the method: as §1

[39] = biological target: Neu5Ac(a2-6)GalNAc(b1-4)GlcNAc
Summary of the method: as §1

[40] = biological target: Neu5Ac(a2-6)GalNAc(b1-4)GlcNAc6S
Summary of the method: as §1

[41] = biological target: Neu5Ac(a2-6)GlcNAc(b1-4)GlcNAc
Summary of the method: as §1

B1: rCnSL-A (Clitocybe nebularis) (protein)
chain: VNPNLPGPNDVFVGFRGTNNIVGAIYEKDGIKDTPLNNGADAEMGPGSYITDGLFTARIFASGSAGNNPGTTATVCKIYASGVQWRGAPKGYIPVAYFGNGPTAEQRRQTYLRTLGLPGTAIRFGNLNTNPGQGPTAPRQMVVPPGPLRSLLKASCFPAADTRLPQTLHYFEKRVDWNIITAADSQTWGH
Neu5Ac(a2-3)GalNAc
  glycan array binding signal (z-score): -0.307
[1]
  glycan array binding signal (z-score): -0.232
[2]
  glycan array binding signal (z-score): -0.278
[3]
  glycan array binding signal (z-score): -0.285
[4]
  glycan array binding signal (z-score): 0.066
[5]
  glycan array binding signal (z-score): -0.254
Neu5Ac(a2-6)Gal
  glycan array binding signal (z-score): -0.26
[6]
  glycan array binding signal (z-score): -0.088
Neu5Ac(a2-6)Gal(b1-4)Glc
  glycan array binding signal (z-score): -0.27
[7]
  glycan array binding signal (z-score): -0.237
[8]
  glycan array binding signal (z-score): -0.241
[9]
  glycan array binding signal (z-score): -0.28
[10]
  glycan array binding signal (z-score): -0.139
[11]
  glycan array binding signal (z-score): -0.247
[12]
  glycan array binding signal (z-score): -0.186
[13]
  glycan array binding signal (z-score): -0.219
[14]
  glycan array binding signal (z-score): -0.206
[15]
  glycan array binding signal (z-score): -0.176
[16]
  glycan array binding signal (z-score): -0.227
[17]
  glycan array binding signal (z-score): -0.346
[18]
  glycan array binding signal (z-score): -0.231
[19]
  glycan array binding signal (z-score): -0.289
[20]
  glycan array binding signal (z-score): -0.285
[21]
  glycan array binding signal (z-score): -0.193
[22]
  glycan array binding signal (z-score): -0.04
[23]
  glycan array binding signal (z-score): -0.269
[24]
  glycan array binding signal (z-score): -0.095
[25]
  glycan array binding signal (z-score): -0.254
[26]
  glycan array binding signal (z-score): -0.146
[27]
  glycan array binding signal (z-score): -0.13
[28]
  glycan array binding signal (z-score): 0.6
[29]
  glycan array binding signal (z-score): -0.201
[30]
  glycan array binding signal (z-score): 0.406
[31]
  glycan array binding signal (z-score): -0.204
[32]
  glycan array binding signal (z-score): -0.246
[33]
  glycan array binding signal (z-score): -0.196
[34]
  glycan array binding signal (z-score): -0.219
[35]
  glycan array binding signal (z-score): -0.161
[36]
  glycan array binding signal (z-score): -0.183
[37]
  glycan array binding signal (z-score): -0.241
[38]
  glycan array binding signal (z-score): -0.302
Neu5Ac(a2-6)GalNAc
  glycan array binding signal (z-score): -0.241
[39]
  glycan array binding signal (z-score): -0.347
[40]
  glycan array binding signal (z-score): -0.252
[41]
  glycan array binding signal (z-score): -0.287
